Laboratory results from the supplement of paper PMC10723795.
Structures can show the parent of a compound that is named as a salt. The list shows a part of the results.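 The calls were made as follows: active = more than 2 SD below the DMSO mean: under 0.85 at 10 µM or 0.885 at 1 µM; inactive = the rest.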 Many values rest on one well or one pass, so single values are uncertain.

Tested on: RPE1
Assay: nucleolar normality score relative to DMSO (fraction of DMSO control); RPE1 is a non-cancer human cell line; higher = more normal nucleoli (less nucleolar stress)
Conditions: 24 h
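Also: fixed cells immunolabelled for nucleolin and UBF, 40 image fields per well in 384-well plates, per-cell score = nucleolin nucleolar/nucleoplasm intensity ratio divided by the matching UBF ratio.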

| Structure (SMILES) | nucleolar normality score (1 µM) | nucleolar normality score (10 µM) |
| --- | --- | --- |
| O=C1CCC(N2C(=O)c3ccccc3C2=O)C(=O)N1 (stereo not drawn) [Thalidomide] | inactive: 0.961 | inactive: 1.01 |
| CCCCc1nc(Cl)c(CO)n1Cc1ccc(-c2ccccc2-c2nnn[nH]2)cc1 [Losartan] | inactive: 1 | inactive: 1.07 |
| C=CCn1c(=O)c2cnc(Nc3ccc(N4CCN(C)CC4)cc3)nc2n1-c1cccc(C(C)(C)O)n1 [Adavosertib (MK-1775)] | inactive: 1.01 | inactive: 0.939 |
| CC(NC(=O)Cc1cc(F)cc(F)c1)C(=O)NC1C(=O)N(C)c2ccccc2-c2ccccc21 (stereo not drawn) | inactive: 1.06 | inactive: 1.1 |
| CN(C)CCNC(=O)c1cccn2c(=O)c3cc4ccccc4cc3nc12 | active: 0.11 | active: 0.129 |
| COC(=O)[C@H](CCSC)NC(=O)c1ccc(NC[C@@H](N)CS)cc1-c1ccccc1 | inactive: 0.964 | inactive: 1.03 |
| Cc1cc(C)c(CNC(=O)c2cc(-c3ccc(N4CCN(C)CC4)nc3)cc3c2c(C)cn3C(C)C)c(=O)[nH]1 | inactive: 1 | inactive: 1.01 |
| O=C1c2c(O)cc(O)cc2O[C@H](c2cc(O)c(O)c(O)c2)[C@H]1O [Dihydromyricetin] | inactive: 1.08 | inactive: 1.12 |
| CCc1cnn2c(NCc3ccc[n+]([O-])c3)cc(N3CCCC[C@H]3CCO)nc12 | active: 0.223 | active: 0.225 |
| O=C1NC(=O)[C@@H](c2cn3c4c(cccc24)CCC3)[C@@H]1c1c[nH]c2ccccc12 [Tivantinib (ARQ 197)] | inactive: 1.02 | inactive: 0.877 |
| CC(C(=O)Nc1cccc(/N=C/c2c(O)ccc3ccccc23)c1)c1ccccc1 (stereo not drawn) [Salermide] | inactive: 0.992 | inactive: 1.05 |
| COc1nc(N)nc2c1ncn2[C@@H]1O[C@H](CO)[C@@H](O)[C@@H]1O [Nelarabine] | inactive: 0.998 | inactive: 1.05 |
| CN(C)CCCn1cc(C2=C(c3c[nH]c4ccccc34)C(=O)NC2=O)c2ccccc21 | inactive: 0.977 | inactive: 0.976 |
| O=C(Nc1cccc(Nc2ncc(Br)c(NCCc3cnc[nH]3)n2)c1)N1CCCC1 | inactive: 0.951 | inactive: 1.08 |
| Cn1cnc([N+](=O)[O-])c1Sc1ncnc2[nH]cnc12 [Azathioprine] | active: 0.822 | inactive: 0.964 |
| CC(C)C(=O)Nc1ccc([N+](=O)[O-])c(C(F)(F)F)c1 [Flutamide] | inactive: 0.981 | inactive: 1.03 |
| CC(C)(O)C1CCC(C)(C2C(O)CC3(C)C4CC(OC5OC(CO)C(O)C(O)C5O)C5C(C)(C)C(OC6OCC(O)C(O)C6O)CCC56CC46CCC23C)O1 (stereo not drawn) [Astragaloside A] | inactive: 1 | inactive: 0.917 |
| S=C(NCc1ccc2c(c1)OCO2)N1CCN(c2ncnc3c2oc2ccccc23)CC1 [Amuvatinib (MP-470)] | inactive: 1.05 | inactive: 1.07 |
| CC1(C)CCC2=C(O1)c1ccccc1C(=O)C2=O [Beta-Lapachone] | inactive: 0.975 | inactive: 1.03 |
| Cc1cc(C)nc(NC(=S)N2CCN(Cc3ccc(C(F)(F)F)cc3)CC2)c1 | inactive: 1.09 | inactive: 1.08 |

| Structure (SMILES) | nucleolar normality score (1 µM) | nucleolar normality score (10 µM) |
| --- | --- | --- |
| Cc1cc(O)c(-c2ccc([C@@H](C)CN(C)C)cc2)c2c1[nH]c(=O)c1sccc12 | active: 0.203 | active: 0.182 |
| CCOc1cc(C(C)(C)C)ccc1C1=N[C@@](C)(c2ccc(Cl)cc2)[C@@](C)(c2ccc(Cl)cc2)N1C(=O)N1CCN(CCCS(C)(=O)=O)CC1 | inactive: 1.06 | inactive: 1.02 |
| CN1CCN(c2ccc(OC(F)(F)F)c(Nc3ncc4c(n3)-c3c(c(C(N)=O)nn3CCO)CC4)c2)CC1 | active: 0.88 | active: 0.826 |
| Cc1cc(O)c2c(c1)C(=O)c1cc(O)cc(O)c1C2=O [Emodin] | inactive: 1.09 | inactive: 1.12 |
| Cn1cc(-c2ccc3nnc(Sc4ccc5ncccc5c4)n3n2)cn1 | inactive: 1.11 | inactive: 1.1 |
| Clc1ccc(Nc2nnc(Cc3ccncc3)c3ccccc23)cc1 [Vatalanib (PTK787) 2HCl] | inactive: 1.06 | inactive: 1.06 |
| COC(=O)c1ccc2c(C(=Nc3ccc(N(C)C(=O)CN4CCN(C)CC4)cc3)c3ccccc3)c(O)[nH]c2c1 [Nintedanib Ethanesulfonate Salt] | inactive: 0.934 | inactive: 1.04 |
| COC(=O)c1ccc2c(C(=Nc3ccc(N(C)C(=O)CN4CCN(C)CC4)cc3)c3ccccc3)c(O)[nH]c2c1 [Nintedanib (BIBF 1120)] | inactive: 1.05 | active: 0.741 |
| CC(C)=CCOc1c2ccoc2cc2oc(=O)ccc12 [Isoimperatorin] | inactive: 1.11 | inactive: 0.93 |
| CN1CCN(C2CCN(C(=O)Nc3cc(Oc4ccc(NC(=O)C5(C(=O)Nc6ccc(F)cc6)CC5)c(F)c4)ccn3)CC2)CC1 [Golvatinib (E7050)] | inactive: 1.01 | inactive: 1.01 |
| O=c1[nH]cnc2[nH]ncc12 [Allopurinol Sodium] | inactive: 1.01 | inactive: 1.07 |
| Cc1cc2c(F)c(Oc3ncnn4cc(OC[C@@H](C)O)c(C)c34)ccc2[nH]1 | inactive: 0.998 | inactive: 1.04 |
| COc1cc(/C=C/C(=O)CC(=O)/C=C/c2ccc(O)c(OC)c2)ccc1O [Curcumin] | inactive: 1.03 | inactive: 1.08 |
| Cn1cc(-c2ccc(S(=O)(=O)n3ccc(/C=C/C(=O)Nc4ccccc4N)c3)cc2)cn1 | inactive: 0.979 | inactive: 1.03 |
| CC/C(=C(\c1ccccc1)c1ccc(OCCN(C)C)cc1)c1ccccc1 [Tamoxifen Citrate] | inactive: 1.03 | inactive: 1.11 |
| O=c1[nH]nc(Sc2ncc([N+](=O)[O-])s2)n1-c1ccc2c(c1)OCCO2 | inactive: 0.952 | inactive: 1.1 |
| C=C(c1ccc(C(=O)O)cc1)c1cc2c(cc1C)C(C)(C)CCC2(C)C [Bexarotene] | inactive: 1.04 | inactive: 1.04 |
| COc1cc2ncnc(Nc3ccc(F)c(Cl)c3)c2cc1OCCCN1CCOCC1 [Gefitinib (ZD1839)] | inactive: 0.965 | inactive: 1.02 |
| CN1CCN(c2nc(C3=C(c4c[nH]c5ccccc45)C(=O)NC3=O)c3ccccc3n2)CC1 [Sotrastaurin] | inactive: 1.02 | inactive: 0.895 |
| COC(=O)[C@]12CCC(C)(C)C[C@H]1[C@H]1C(=O)C=C3[C@@]4(C)C=C(C#N)C(=O)C(C)(C)[C@@H]4CC[C@@]3(C)[C@]1(C)CC2 [Bardoxolone Methyl] | inactive: 0.9 | active: 0.268 |

| Structure (SMILES) | nucleolar normality score (1 µM) | nucleolar normality score (10 µM) |
| --- | --- | --- |
| Nc1nc2[nH]cc(CCc3ccc(C(=O)N[C@@H](CCC(=O)O)C(=O)O)cc3)c2c(=O)[nH]1 [Pemetrexed Disodium Hydrate] | inactive: 1.02 | inactive: 1.07 |
| Cc1ccc(S(=O)(=O)Nc2cc(-c3ccc(C#N)s3)ccc2C)cc1 | inactive: 0.932 | active: 0.808 |
| CCN1CCN(Cc2ccc(Nc3ncc(F)c(-c4cc(F)c5nc(C)n(C(C)C)c5c4)n3)nc2)CC1 [Abemaciclib] | inactive: 1.06 | inactive: 0.907 |
| CCN1CCN(Cc2ccc(Nc3ncc(F)c(-c4cc(F)c5nc(C)n(C(C)C)c5c4)n3)nc2)CC1 | inactive: 0.888 | inactive: 1 |
| O=C(O)c1cc(I)ccc1NC(=O)[C@H](Cc1ccccc1)NCc1ccccc1 | inactive: 1.03 | inactive: 1.02 |
| O=C[C@H](O)[C@H](O)[C@H](O)CO [D-Ribose] | inactive: 0.927 | inactive: 1.03 |
| O=C(O)C1(C(=O)O)CCC1.[NH2-].[NH2-].[Pt+2] [Carboplatin] | inactive: 1.05 | inactive: 1.07 |
| O=C(c1cncc(Br)c1)N1CCC(N2CCCC2)CC1 | inactive: 1.02 | inactive: 1.09 |
| CCCCCOC(=O)Nc1nc(=O)n([C@@H]2O[C@H](C)[C@@H](O)[C@H]2O)cc1F [Capecitabine] | inactive: 1.05 | inactive: 1.05 |
| CC(C)=CCC/C(C)=C/CC/C(C)=C/CSc1ccccc1C(=O)O [Salirasib] | inactive: 1.03 | inactive: 0.986 |
| COc1ccc2cc(-c3nc(-c4ccc([S+](C)[O-])cc4)[nH]c3-c3ccncc3)ccc2c1 (stereo not drawn) [Tie2 kinase inhibitor] | inactive: 1 | inactive: 0.984 |
| COc1cc2ncnc(Oc3ccc(CC(=O)Nc4cnn(C(C)C)c4)cc3)c2cc1OC | inactive: 1.06 | inactive: 0.951 |
| COc1ncc(-c2ccc3nccc(-c4ccnnc4)c3c2)cc1NS(=O)(=O)c1ccc(F)cc1F | active: 0.636 | active: 0.489 |
| c1cc(-c2cnn3cc(-c4ccc(OCCN5CCCCC5)cc4)cnc23)ccn1 [Dorsomorphin (Compound C) 2HCl] | inactive: 1.06 | inactive: 1.13 |
| CC1COCCN1c1cc(C2(S(C)(=O)=O)CC2)nc(-c2cccc3[nH]ccc23)n1 (stereo not drawn) | inactive: 0.977 | inactive: 0.888 |
| O=C1[C@H](CC[C@H](O)c2ccc(F)cc2)[C@@H](c2ccc(O)cc2)N1c1ccc(F)cc1 [Ezetimibe] | inactive: 1.03 | inactive: 1.02 |
| CC1(C)CNc2cc(NC(=O)c3cccnc3NCc3ccncc3)ccc21 [Motesanib Diphosphate (AMG-706)] | inactive: 1.03 | inactive: 1.07 |
| Oc1cc(O)c(Cl)cn1 [Gimeracil] | inactive: 1.05 | inactive: 1.11 |
| COc1ccc(N2C(=O)/C(=C\c3ccc([N+](=O)[O-])s3)SC2=S)cc1 | active: 0.818 | active: 0.592 |
